# The other results are listed elsewhere or left out.
# Tested on: PfAP2-HC AP2 domain (GST-tagged)
# Assay: gcPBM binding intensity (ln(normalized median fluorescence intensity)); higher = stronger DNA binding
# Method in brief: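 Each value is the highest Masliner-normalised natural-log median intensity across replicate spots of either orientation of a probe. The probes were primer-extended double-stranded 36-bp intergenic genomic sequences on an Agilent 4 × 180k array, alongside negative controls, exposed for 1 h to GST-tagged P. falciparum DNA-binding domains expressed in E. coli. Bound protein was picked up with Alexa488 anti-GST antibody and scanned at 488 nm.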
row,Sequence,gcPBM binding intensity (ln)
1,ATTAAAAGAACAATGTAAAAAAAGCAAATTAAAGAT [TGCATGCA_negctrl_site360],10
2,AAAAAAAAAATACAGGTGCAATAAGAAAAAAATGGT,9.86
3,TATATTAACAAAATGGTGCAATAATTTCTATATTAT [GTGCAC_site9857],9.57
4,CCAAATTTATAAAGAACACACACATATATATATATA [CACACA_site7900],10.2
5,TATACATATTTAATATGTACATAATAATACTTATTC [XGTACX_site6939],9.59
6,AAGCATGTAGAATAATGTACTTGTGATTTTAATATA [XGTACX_site8565],9.83
7,ATATTTTTTGTATGTTGTACATAAAATATACATTTT [XGTACX_site6815],9.75
8,AGATACTTTTTTAAAAGTACAAAAACTTTCGATATA [XGTACX_site959],9.45
9,CATACATACATACATACACACATACATATATATATA [CACACA_site8388],9.87
10,TCTAAAATAGTCCAGAGTACAAGAAACCATAATATA [XGTACX_site5237],9.52
11,ATATAGGTAATATTTTGTACATATTTTTGGGGTAGT [XGTACX_site5634],9.83
12,AATTCTTTTTTCAACACACACACACCCGAAAATATA [CACACA_site3111],10.5
13,TTCTAATATATGCATACACACAAATGTGAATATACA [CACACA_site2142],9.83
14,ATATATTTATTTATATGTACATAATATTTTTCTCAG [XGTACX_site800],9.52
15,AAAAAAAAAAAAAACACACACACACCCAAATATATA [CACACA_site1169],11.3
16,AAAAATGCAATTTAATGTACACATAAGATGTTATTT [XGTACX_site6853],9.67
17,TTTTTTATTACTTTGTGTACTTACACAGAACCTTAT [XGTACX_site6038],9.76
18,ATAAAAATATAAACATGTACATAAAAATCTATATAT [XGTACX_site405],9.82
19,TTGCTTATATTTCTAAAATGTAAAAGACACAAAGGT [XGTACX_negctrl_site225],9.45
20,AAAAAGGTTATTGGTACACACATATGTATATATATA [CACACA_site552],10.1
21,GAACCGTGCAAATGTTGTACACTTTAAAAATATTCT [XGTACX_site4488],9.78
22,ATATGTGTGTAGTGTTCAATTATATTGATGTGAAGG [TGCATGCA_negctrl_site462],10.1

row,Sequence,gcPBM binding intensity (ln)
1,TTATAATAATTTTATGCACACAGAAAAATACAAGGT [CACACA_site9169],9.87
2,ATAATATATATATTAACACACATCCTTTTATGTATA [CACACA_site1203],9.83
3,TACATATAGAAACACACACACATATATATATATATA [CACACA_site1300],10
4,TAGGAGCCTAGACACACACACAAAAAAAAAAAAAAA [CACACA_site6911],9.89
5,AAAACGAAAATTTGGAAACCAAAGGAAAAACATAAT [GTGCAC_negctrl_site709],9.85
6,TATATAAGAATTTTTACACACATGAAAATGTAGATA [CACACA_site3735],9.69
7,TATTTAATGTGATACTTATATTATTTTATGATTAAA [GTGCAC_negctrl_site25],9.49
8,TATACATACTCACCCACACACAAAAAAAAAAAAAAA [CACACA_site862],10.4
9,ACAAAATAAAAACACACACACAAACACAAAAAAATA [CACACA_site3390],11.4
10,AGCTCTTGTCATTTTGCACACACACCGGTATAGGTT [CACACA_site5654],10.2
11,AGAAGGTAAAAACACACACACACATACAAAAAAAAA [CACACA_site3767],10.7
12,TATATATACAGACACATACACACAAATAAAAAAACA [CACACA_site3413],10.3
13,ATATTTAAAAAAGAGTGTACTCATCTCTTTTAAAAA [XGTACX_site1160],9.32
14,ATGTTGCTCATATGAGTGCACGTTTCATTTCAGTTT [GTGCAC_site9865],9.77
15,AATGTAGGTTTATTTACACACAAATATAGATATATA [CACACA_site6825],9.89
16,GTGTATTTATGTTATACACACAAAAATATTTTGTAT [CACACA_site4305],9.9
17,CTATTTCGTATATATAGTACATATTATAACATACTA [XGTACX_site978],9.65
18,AATTTATATAATTTTGTGCACAATATTCATGTATAT,9.9
19,ATTTTATTAATTTGGTGTACTTAATTTATATTTTTC [XGTACX_site4947],9.96
20,AAAAAAAAAAAATAATAAATAAATAAAAATAAATGA [CACACA_negctrl_site1623],9.6
21,CCTCCATTAGATACTTGTACATAAAAGTTTTGATTG [XGTACX_site7428],9.47
22,AGACTTTGTACAAACACACACATGAACACAATATTA [CACACA_site1360],10.7

# — the supplement of paper PMC11417369
